Results from patent US9969812B2, “Anti human Notch4 antibody” (Eisai R&D Management Co., Ltd., priority 2015, dated 2018).

Assays:
[1] = target: T1, Human Notch4-NRR-SEAP-HA-His (Homo sapiens, UniProt Q99466); experiment: BIAcore T100 kinetics analysis, Antibody B captured, human Notch NRR domain injected; assay type: binding
T1 construct: secretory alkaline phosphatase (SEAP) (C); HA (C); 10x His (C); made in house
T1 sequence (Q99466 1046-1445): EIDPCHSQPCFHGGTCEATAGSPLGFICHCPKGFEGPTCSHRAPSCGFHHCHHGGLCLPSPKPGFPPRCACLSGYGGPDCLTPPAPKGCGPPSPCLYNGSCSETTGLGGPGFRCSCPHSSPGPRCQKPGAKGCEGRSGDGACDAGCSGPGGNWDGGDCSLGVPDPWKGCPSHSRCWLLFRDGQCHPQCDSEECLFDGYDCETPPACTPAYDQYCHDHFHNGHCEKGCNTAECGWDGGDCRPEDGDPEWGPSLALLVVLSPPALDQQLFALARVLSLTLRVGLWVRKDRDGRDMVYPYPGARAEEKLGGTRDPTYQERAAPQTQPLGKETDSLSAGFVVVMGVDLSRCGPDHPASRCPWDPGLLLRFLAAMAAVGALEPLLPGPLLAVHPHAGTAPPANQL

[2] = test system: Notch4; experiment: Notch4-GAL4 luciferase reporter assay, comparison with polyclonal antibody N-17; assay type: cell-based, human; conditions: 0.01-10 μg/mL, DLL4 stimulated reporter cells, 22 hours
Experimental: Next, signal inhibitory activities of polyclonal anti-human Notch4 antibody (Santa Cruz, SC8643, hereinafter N-17) and Antibody B were compared with Notch4-GAL4 luciferase reporter assay system.
Slide-A-Lyzer (Thermo scientific, 66333) was employed to perform dialysis at 4° C. for 8 hours in PBS in order to remove sodium azide contained in N-17. After concentrating the dialyzed N-17 solution with Amicon Ultra (Millipore, UFC503096), and the concentration was measured with a microspectrophotometer (Nano Drop, Thermo).
Recombinant human DLL4 (R&D Systems, 1506-D4-050/CF) was dissolved in PBS to prepare a 10 μg/mL solution (hereinafter DLL4 solution). […] The luciferase activity of the reporter cells were evaluated with Steady-Glo Assay System (Promega, E2510) as follows.
One hundred microliters of Steady-Glo solution was added to each well after culturing, stirred, and then left at room temperature for 30 minutes. Luminescence was measured with Multilabel Plate Reader (Envision 2102-0020, Perkin Elmer). Relative luminescence was calculated from the measured luminescence value by the following formula. Relative luminescence (%)=(Luminescence intensity of the specimen well−Average luminescence intensity of non-stimulated wells)/(Average luminescence intensity of control wells−Average luminescence intensity of non-stimulated wells)

B1: Antibody B: humanized anti-human Notch4 antibody, heavy chain variable region HK3, light chain variable region L3, C-terminal Lys deleted (antibody)
heavy: EVQLVESGGGLVQPGGSLRLSCAASGFTFSSYGMSWVRQAPGKGLELVATINSNGGRTYYPDSVKGRFTISRDNSKNTLYLQMGSLKAEDMAVYYCARDQGFAYWGQGTLVTVSSASTKGPSVFPLAPCSRSTSESTAALGCLVKDYFPEPVTVSWNSGALTSGVHTFPAVLQSSGLYSLSSVVTVPSSNFGTQTYTCNVDHKPSNTKVDKTVERKCCVECPPCPAPPAAAPSVFLFPPKPKDTLMISRTPEVTCVVVDVSHEDPEVQFNWYVDGVEVHNAKTKPREEQFNSTFRVVSVLTVVHQDWLNGKEYKCKVSNKGLPAPIEKTISKTKGQPREPQVYTLPPSREEMTKNQVSLTCLVKGFYPSDIAVEWESNGQPENNYKTTPPMLDSDGSFFLYSKLTVDKSRWQQGNVFSCSVMHEALHNHYTQKSLSLSPG
light: EIVMTQSPATLSVSPGERATLSCKASQDVGTAVAWYQQKPGQAPRLLIYWASTRHTGIPARFSGSGSGTEFTLTISSLQSEDFAVYYCQQYSSYPWTFGQGTKVEIKRTVAAPSVFIFPPSDEQLKSGTASVVCLLNNFYPREAKVQWKVDNALQSGNSQESVTEQDSKDSTYSLSSTLTLSKADYEKHKVYACEVTHQGLSSPVTKSFNRGEC
[1]
  Ka: 27200 M⁻¹ s⁻¹
  Kd: 0.000831 s⁻¹
[2]
  Notch4 signal inhibitory activity (relative luminescence): Signal inhibitory activity was confirmed
